# Experimental data: the supplement of paper PMC8728848
# Some of the results follow.
# B1: T7P4 (Tuber borchii) (protein)
# chain: GSHIGPYMSFYASSEDVRTIEEGGRTWLVGRARRADGSWQDIKLDLDNIIGNRDGHLTWGEQNFTQSASDIRFNFEGSNVPVLRAKLRNAAGGEQESDLNLGERLTNNNGDLVFN
# How the values were obtained:
# Assay in all cases: glycan array binding signal (z-score within array); higher = stronger binding
# Conditions in all cases: glycan notation: IUPAC condensed, linker removed
# Gal(b1-3)Gal = biological target: Gal(b1-3)Gal
# Method in brief: (§1)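 Negative Z-scores can be read as non-binding. The Z-score is calculated within each array and then averaged across arrays of one protein sequence at different concentrations or buffers and across linkers. Arrays, 3228 in all, were curated from the Consortium for Functional Glycomics database and kept only where the protein sequence was available.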
# Gal(b1-3)GalNAc = biological target: Gal(b1-3)GalNAc
# Method in brief: as §1
# [1] = biological target: Gal(b1-3)GalNAc(b1-3)Gal(a1-4)Gal(b1-4)Glc
# Method in brief: as §1
# [2] = biological target: Gal(b1-3)GalNAc(b1-3)Gal(b1-4)Glc
# Method in brief: as §1
# [3] = biological target: Gal(b1-3)GalNAc(b1-3)Gal(b1-4)GlcNAc
# Method in brief: as §1
# [4] = biological target: Gal(b1-3)GalNAc(b1-4)Gal(b1-4)Glc
# Method in brief: as §1
# [5] = biological target: Gal(b1-3)GalNAc(b1-4)[Neu5Ac(a2-3)]Gal(b1-4)Glc
# Method in brief: as §1
# Gal(b1-3)GlcNAc = biological target: Gal(b1-3)GlcNAc
# Method in brief: as §1
# [6] = biological target: Gal(b1-3)GlcNAc(b1-3)Gal(b1-4)Glc
# Method in brief: as §1
# [7] = biological target: Gal(b1-3)GlcNAc(b1-3)Gal(b1-4)GlcNAc
# Method in brief: as §1
# [8] = biological target: Gal(b1-3)[Fuc(a1-4)]GlcNAc
# Method in brief: as §1
# [9] = biological target: Gal(b1-3)[Fuc(a1-4)]GlcNAc(b1-3)Gal(b1-4)GlcNAc
# Method in brief: as §1
# [10] = biological target: Gal(b1-3)[Fuc(a1-4)]GlcNAc(b1-3)Gal(b1-4)[Fuc(a1-3)]GlcNAc
# Method in brief: as §1
# [11] = biological target: Gal(b1-3)[GlcNAc(b1-6)]GalNAc
# Method in brief: as §1
# [12] = biological target: Gal(b1-3)[GlcNAc(b1-6)]GlcNAc
# Method in brief: as §1
# [13] = biological target: Gal(b1-3)[Neu5Ac(a2-6)]GalNAc
# Method in brief: as §1
# [14] = biological target: Gal(b1-3)[Neu5Ac(a2-6)]GlcNAc
# Method in brief: as §1
# [15] = biological target: Gal(b1-3)[Neu5Ac(a2-6)]GlcNAc(a1-4)Gal(b1-4)Glc
# Method in brief: as §1
# [16] = biological target: Gal(b1-3)[Neu5Ac(a2-6)]GlcNAc(b1-6)Gal(b1-4)Glc
# Method in brief: as §1
# [17] = biological target: Gal(b1-3)[Neu5Ac(b2-6)]GalNAc
# Method in brief: as §1
# [18] = biological target: Gal(b1-3)[Neu5Ac(b2-6)]GlcNAc
# Method in brief: as §1
# [19] = biological target: Gal(b1-4)GalNAc(a1-3)[Fuc(a1-2)]Gal(b1-4)GlcNAc
# Method in brief: as §1
# [20] = biological target: Gal(b1-4)GalNAc(b1-3)[Fuc(a1-2)]Gal(b1-4)GlcNAc
# Method in brief: as §1
# Gal(b1-4)Glc = biological target: Gal(b1-4)Glc
# Method in brief: as §1
# Gal(b1-4)Glc6S = biological target: Gal(b1-4)Glc6S
# Method in brief: as §1
# Gal(b1-4)GlcNAc = biological target: Gal(b1-4)GlcNAc
# Method in brief: as §1
# [21] = biological target: Gal(b1-4)GlcNAc(b1-2)Man(a1-3)[Gal(b1-4)GlcNAc(b1-2)Man(a1-6)]Man(b1-4)GlcNAc(b1-4)GlcNAc
# Method in brief: as §1
# [22] = biological target: Gal(b1-4)GlcNAc(b1-3)Gal(b1-4)Glc
# Method in brief: as §1
# [23] = biological target: Gal(b1-4)GlcNAc(b1-3)Gal(b1-4)GlcNAc
# Method in brief: as §1
# [24] = biological target: Gal(b1-4)GlcNAc(b1-3)Gal(b1-4)GlcNAc(b1-3)Gal(b1-4)GlcNAc
# Method in brief: as §1
# [25] = biological target: Gal(b1-4)GlcNAc(b1-3)Gal(b1-4)[Fuc(a1-3)]GlcNAc(b1-3)Gal(b1-4)[Fuc(a1-3)]GlcNAc
# Method in brief: as §1
# [26] = biological target: Gal(b1-4)GlcNAc(b1-3)GalNAc
# Method in brief: as §1
# [27] = biological target: Gal(b1-4)GlcNAc(b1-3)[Gal(b1-4)GlcNAc(b1-6)]GalNAc
# Method in brief: as §1
# [28] = biological target: Gal(b1-4)GlcNAc(b1-6)Gal(b1-4)GlcNAc(b1-6)GalNAc
# Method in brief: as §1
# [29] = biological target: Gal(b1-4)GlcNAc(b1-6)GalNAc
# Method in brief: as §1
# [30] = biological target: Gal(b1-4)GlcNAc(b1-6)[Gal(b1-3)]GalNAc
# Method in brief: as §1
# [31] = biological target: Gal(b1-4)GlcNAc(b1-6)[Gal(b1-3)]GlcNAc
# Method in brief: as §1
# Gal3S(b1-3)GalNAc = biological target: Gal3S(b1-3)GalNAc
# Method in brief: as §1
# Gal3S(b1-3)GlcNAc = biological target: Gal3S(b1-3)GlcNAc
# Method in brief: as §1
# [32] = biological target: Gal3S(b1-3)[Fuc(a1-4)]GlcNAc
# Method in brief: as §1
binder,measurement,setting,value
B1,glycan array binding signal (z-score),Gal(b1-3)Gal,-0.089
same,glycan array binding signal (z-score),Gal(b1-3)GalNAc,-0.205
same,glycan array binding signal (z-score),[1],-0.05
same,glycan array binding signal (z-score),[2],5.7
same,glycan array binding signal (z-score),[3],-0.217
same,glycan array binding signal (z-score),[4],-0.223
same,glycan array binding signal (z-score),[5],-0.221
same,glycan array binding signal (z-score),Gal(b1-3)GlcNAc,-0.179
same,glycan array binding signal (z-score),[6],5.55
same,glycan array binding signal (z-score),[7],-0.217
same,glycan array binding signal (z-score),[8],-0.22
same,glycan array binding signal (z-score),[9],-0.207
same,glycan array binding signal (z-score),[10],-0.218
same,glycan array binding signal (z-score),[11],-0.221
same,glycan array binding signal (z-score),[12],-0.216
same,glycan array binding signal (z-score),[13],-0.213
same,glycan array binding signal (z-score),[14],-0.216
same,glycan array binding signal (z-score),[15],5.89
same,glycan array binding signal (z-score),[16],5.74
same,glycan array binding signal (z-score),[17],-0.16
same,glycan array binding signal (z-score),[18],-0.104
same,glycan array binding signal (z-score),[19],0.016
same,glycan array binding signal (z-score),[20],-0.211
same,glycan array binding signal (z-score),Gal(b1-4)Glc,-0.128
same,glycan array binding signal (z-score),Gal(b1-4)Glc6S,-0.215
same,glycan array binding signal (z-score),Gal(b1-4)GlcNAc,-0.225
same,glycan array binding signal (z-score),[21],-0.223
same,glycan array binding signal (z-score),[22],2.77
same,glycan array binding signal (z-score),[23],-0.196
same,glycan array binding signal (z-score),[24],-0.224
same,glycan array binding signal (z-score),[25],-0.216
same,glycan array binding signal (z-score),[26],-0.222
same,glycan array binding signal (z-score),[27],-0.226
same,glycan array binding signal (z-score),[28],-0.224
same,glycan array binding signal (z-score),[29],-0.221
same,glycan array binding signal (z-score),[30],-0.216
same,glycan array binding signal (z-score),[31],-0.203
same,glycan array binding signal (z-score),Gal3S(b1-3)GalNAc,-0.217
same,glycan array binding signal (z-score),Gal3S(b1-3)GlcNAc,-0.102
same,glycan array binding signal (z-score),[32],-0.221
